From the supplement of paper PMC10369915
The list shows a part of the results. No stated cut-off is given here; in the data, active = 3.2 or more and inactive = the rest. Most of these values are background signal.

Tests used:
Assay in all cases: enrichment score (SH2-bound / input frequency) (ratio); bacterial display of known human phosphotyrosine sites (pTyr-Var adds point mutants) read by sequencing; higher = stronger binding; tyrosines were phosphorylated by kinases first
Details in all cases: peptide library: pTyr-Var
[1] = target: SHP2 C-SH2 domain E139D
[2] = target: SHP2 C-SH2 domain wild-type
[3] = target: SHP2 N-SH2 domain L43F
[4] = target: SHP2 N-SH2 domain T42A
[5] = target: SHP2 N-SH2 domain T52S
[6] = target: SHP2 N-SH2 domain wild-type
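Further: displayed peptides selected on beads carrying the immobilized SH2 domain, with library peptides lacking any tyrosine serving as negative controls.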

Row | Binder | enrichment score [1] | enrichment score [2] | enrichment score [3] | enrichment score [4] | enrichment score [5] | enrichment score [6]
1 | SLNEEYAKNKT [MSH2_Y563_T564A] | inactive: 0.586 | inactive: 0.625 | inactive: 0.758 | inactive: 0.591 | inactive: 0.606 | inactive: 0.508
2 | LEEFQYIGESQ [MSH2_Y856] | inactive: 0.569 | inactive: 1.09 | inactive: 1.35 | inactive: 0.747 | inactive: 1.14 | inactive: 1.5
3 | GESQGYDIMEP [MSH2_Y863] | inactive: 0.627 | inactive: 0.573 | inactive: 0.652 | inactive: 0.517 | inactive: 0.47 | inactive: 0.71
4 | GELQGYDIMEP [MSH2_Y863_S860L] | inactive: 0.594 | inactive: 0.663 | inactive: 0.626 | inactive: 0.421 | inactive: 0.718 | inactive: 0.621
5 | QLPATYMNLGP [MST1R_Y1360] | inactive: 1.7 | inactive: 2.17 | inactive: 1.98 | inactive: 2.22 | inactive: 1.9 | inactive: 1.57
6 | VDTRAYFTSAT [MT-CO1_Y304] | inactive: 0.972 | inactive: 0.839 | inactive: 0.728 | inactive: 0.86 | inactive: 0.751 | inactive: 0.776
7 | STTSDYQWDVS [MTDH_Y364] | inactive: 0.68 | inactive: 0.59 | inactive: 0.668 | inactive: 0.692 | inactive: 0.719 | inactive: 0.679
8 | DDFNLYINVKL [MTHFD1_Y52_S49F] | inactive: 1.33 | inactive: 2.26 | inactive: 1.86 | inactive: 1.34 | inactive: 1.03 | inactive: 2.86
9 | KDDEKYLDVSR [MTM1_Y260_I264S] | inactive: 0.55 | inactive: 0.567 | inactive: 0.627 | inactive: 0.495 | inactive: 0.629 | inactive: 0.674
10 | SKLTIYDARPS [MTM1_Y277] | inactive: 0.846 | inactive: 0.915 | inactive: 0.82 | inactive: 0.689 | inactive: 0.819 | inactive: 0.917
11 | TNFPLYLRSLE [MTM1_Y71_R69P_YF] | inactive: 0.854 | inactive: 0.774 | inactive: 0.884 | inactive: 0.86 | inactive: 0.923 | inactive: 0.895
12 | TNFSLYLRSLE [MTM1_Y71_R69S_YF] | inactive: 0.988 | inactive: 1.19 | inactive: 0.973 | inactive: 1 | inactive: 1.22 | inactive: 1.36
13 | TGSFTYEAVEL [MTMR14_Y462] | inactive: 0.963 | inactive: 0.666 | inactive: 0.9 | inactive: 0.993 | inactive: 0.843 | inactive: 1.04
14 | TGSFTCEAVEL [MTMR14_Y462_Y462C] | inactive: 0.646 | inactive: 0.947 | inactive: 0.766 | inactive: 0.632 | inactive: 0.686 | inactive: 1.12
15 | KAVLHYKHQNQ [MTOR_Y1804_E1799K] | inactive: 1.63 | inactive: 1.13 | inactive: 1.36 | inactive: 0.895 | inactive: 1.18 | inactive: 1.36
16 | IRQDHYESLKE [MTR_Y921] | inactive: 0.698 | inactive: 0.576 | inactive: 0.64 | inactive: 0.761 | inactive: 0.736 | inactive: 0.753
17 | LNRAGYCDALE [MTUS1_Y151_C148R] | inactive: 0.759 | inactive: 0.908 | inactive: 0.735 | inactive: 0.663 | inactive: 1.08 | inactive: 0.71
18 | FFVVEYRNQKP [MUC17_Y4332_D4334N_YF] | active: 3.65 | active: 3.32 | active: 3.85 | active: 3.53 | active: 4.89 | active: 3.52
19 | FFVVEYRDQKP [MUC17_Y4332_YF] | inactive: 2.07 | inactive: 2.19 | inactive: 2.44 | inactive: 1.82 | inactive: 2.77 | inactive: 1.99

Row | Binder | enrichment score [1] | enrichment score [2] | enrichment score [3] | enrichment score [4] | enrichment score [5] | enrichment score [6]
20 | RNNIEYVRDIG [MUSK_Y577] | inactive: 0.802 | inactive: 0.817 | inactive: 1.16 | inactive: 0.608 | inactive: 0.936 | inactive: 1.11
21 | KVFRVYQGQQP [MUTYH_Y494] | inactive: 0.397 | inactive: 0.489 | inactive: 0.513 | inactive: 0.493 | inactive: 0.521 | inactive: 0.705
22 | SSAAGYACLAY [MVD_Y131] | inactive: 0.556 | inactive: 1.18 | inactive: 0.84 | inactive: 1.29 | inactive: 0.783 | inactive: 1.05
23 | SSVAGYACLAY [MVD_Y131_A128V] | inactive: 0.506 | inactive: 1.13 | inactive: 0.7 | inactive: 1.52 | inactive: 0.654 | inactive: 0.969
24 | SSVAGYACLAF [MVD_Y131_A128V_YF] | inactive: 1.94 | inactive: 2.76 | active: 4.49 | active: 9.22 | active: 4.53 | inactive: 2.42
25 | RMETEYGPSVT [MXRA5_Y2717] | inactive: 0.581 | inactive: 0.509 | inactive: 0.624 | inactive: 0.38 | inactive: 0.726 | inactive: 0.468
26 | VHSGTYQVTVC [MYBPC3_Y1043_R1048C] | inactive: 0.988 | inactive: 1.17 | inactive: 0.952 | inactive: 0.828 | inactive: 0.907 | inactive: 1.23
27 | TILEHYRRTHC [MYBPC3_Y1119_V1115I] | inactive: 1.17 | inactive: 1.28 | inactive: 1.24 | inactive: 0.959 | inactive: 1.08 | inactive: 1.05
28 | IIGNGYYFRVF [MYBPC3_Y1135] | inactive: 0.738 | inactive: 0.769 | inactive: 0.802 | inactive: 0.749 | inactive: 0.709 | inactive: 1.09
29 | IIGNGYFFHVF [MYBPC3_Y1135_R1138H_YF] | inactive: 1.03 | inactive: 1.21 | inactive: 1.12 | inactive: 1.08 | inactive: 1.12 | inactive: 1.33
30 | IIGNGYFFRVF [MYBPC3_Y1135_YF] | inactive: 0.633 | inactive: 0.924 | inactive: 0.787 | inactive: 0.895 | inactive: 0.649 | inactive: 1.02
31 | TGNGFYFRVFS [MYBPC3_Y1136_I1131T_YF] | inactive: 0.606 | inactive: 0.659 | inactive: 0.603 | inactive: 0.519 | inactive: 0.534 | inactive: 0.989
32 | IGNGFYFHVFS [MYBPC3_Y1136_R1138H_YF] | inactive: 0.899 | inactive: 0.928 | inactive: 0.854 | inactive: 0.803 | inactive: 0.88 | inactive: 0.995
33 | RIAFQYGVTDL [MYBPC3_Y340] | inactive: 1.07 | inactive: 0.935 | inactive: 0.97 | inactive: 0.843 | inactive: 0.851 | inactive: 1.19
34 | KKLEVYQSIAD [MYBPC3_Y548] | inactive: 0.84 | inactive: 0.88 | inactive: 0.904 | inactive: 0.696 | inactive: 0.875 | inactive: 0.843
35 | KKMEVYQSIAD [MYBPC3_Y548_L545M] | inactive: 0.87 | inactive: 1.03 | inactive: 0.889 | inactive: 0.837 | inactive: 1 | inactive: 0.92
36 | FTNRNYDLDYD [MYC_Y12] | inactive: 0.776 | inactive: 0.621 | inactive: 0.62 | inactive: 0.514 | inactive: 0.509 | inactive: 0.714
37 | SFDLDYDSVQP [MYC_Y16_N11S_YF] | inactive: 0.64 | inactive: 0.491 | inactive: 0.533 | inactive: 0.589 | inactive: 0.516 | inactive: 0.589
